Source: PubChem BioAssay AID504332 (National Center for Advancing Translational Sciences (NCATS), 2011)
Among all 350,000 compounds or so, about 31,000 (8.9%) were called active. The shares of active, inactive and inconclusive entries below differ from those in the screen. Calls come from the whole dose curve; as a rule, active = well fitted inhibition curve with a large enough effect; inconclusive = small, poorly fitted or top-dose-only effect; inactive = no such curve, though single readings can be large or run the other way. A potency beside an inconclusive call is a rough fit, not a confirmed value.

target: Histone-lysine N-methyltransferase EHMT2 (Homo sapiens) (UniProt Q96KQ7); assay: qHTS Assay for Inhibitors of Histone Lysine Methyltransferase G9a; settings: G9a H3K9 monomethylation, AlphaScreen, 2 h; activity, negative = inhibition: at 59 µM (top of the series) unless noted; note: nearly all actives have a fitted effect of over 75% in size
Chain of UniProt Q96KQ7 (Q96KQ7 whole entry, looked up): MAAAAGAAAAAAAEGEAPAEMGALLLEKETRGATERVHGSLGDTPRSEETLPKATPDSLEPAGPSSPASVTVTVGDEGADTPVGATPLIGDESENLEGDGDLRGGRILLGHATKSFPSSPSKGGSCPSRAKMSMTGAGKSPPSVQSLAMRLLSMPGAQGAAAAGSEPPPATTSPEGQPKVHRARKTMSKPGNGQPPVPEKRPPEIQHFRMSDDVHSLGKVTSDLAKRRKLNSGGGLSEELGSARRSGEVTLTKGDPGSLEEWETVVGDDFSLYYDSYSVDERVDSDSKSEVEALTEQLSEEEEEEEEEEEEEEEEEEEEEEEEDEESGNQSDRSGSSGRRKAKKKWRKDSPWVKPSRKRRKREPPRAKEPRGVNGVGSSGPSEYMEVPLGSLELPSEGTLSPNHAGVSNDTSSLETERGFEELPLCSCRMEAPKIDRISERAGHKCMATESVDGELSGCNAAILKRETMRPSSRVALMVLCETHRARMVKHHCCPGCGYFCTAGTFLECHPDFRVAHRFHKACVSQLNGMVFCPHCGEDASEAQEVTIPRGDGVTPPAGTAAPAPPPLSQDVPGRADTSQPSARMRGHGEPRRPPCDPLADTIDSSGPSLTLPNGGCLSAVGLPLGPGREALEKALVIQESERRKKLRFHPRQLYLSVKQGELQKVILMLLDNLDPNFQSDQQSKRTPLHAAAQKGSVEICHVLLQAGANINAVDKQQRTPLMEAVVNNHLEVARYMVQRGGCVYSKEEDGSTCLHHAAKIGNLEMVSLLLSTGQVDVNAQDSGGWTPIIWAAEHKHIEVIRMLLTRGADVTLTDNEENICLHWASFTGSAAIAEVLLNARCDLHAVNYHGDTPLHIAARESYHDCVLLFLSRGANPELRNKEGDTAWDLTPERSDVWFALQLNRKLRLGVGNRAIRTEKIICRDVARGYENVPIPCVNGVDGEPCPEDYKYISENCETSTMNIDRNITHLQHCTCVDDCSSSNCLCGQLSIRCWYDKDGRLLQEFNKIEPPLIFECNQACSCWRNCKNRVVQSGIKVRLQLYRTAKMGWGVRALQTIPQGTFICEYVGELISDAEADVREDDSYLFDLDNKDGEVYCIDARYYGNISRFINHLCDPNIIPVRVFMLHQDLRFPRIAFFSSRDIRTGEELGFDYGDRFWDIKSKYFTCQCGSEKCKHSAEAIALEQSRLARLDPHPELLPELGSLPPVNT
How it was run: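 AlphaScreen detection with an anti-monomethyl H3K9 antibody quantified product after a 2 h room-temperature reaction containing 500 nM biotinylated H3K9 peptide, 20 µM SAM and 20 nM enzyme, which had been preincubated 15 min with compound.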
% is set by controls: 0 for no effect and ±100 for the full control effect; potency is the fitted concentration of half-maximal effect; tags give direction and shape of the fitted curve.

Compound | Potency | activity, negative = inhibition
Cc1ccc(OC(C)C(=O)Nc2ccccc2C(=O)N2CCN(C)CC2)cc1 (stereo unspecified) | active: 39.8 µM | –
Cc1ccc(C(=O)NC(=S)NCc2cccnc2)cc1C | inconclusive: 56.2 µM [inhibitor, partial curve, poor fit] | –
Cc1noc(C)c1COC(=O)c1cc2c3ccccc3n(C)c2s1 | active: 39.8 µM | –
COc1ccc(C)cc1NC(=O)c1nnn(-c2c(C)cccc2C)c1C | – | inactive: -40.4%
C/C=C\C=C\C(=O)N1CC2(CC(c3cccc(NC(=O)/C(C)=C\C)c3)=NO2)C[C@H]1C(N)=O (stereo partly specified) | – | inconclusive: -77.8% [inhibitor] [at 12.7 µM]
CCOC(=O)C1(Cc2cccc(OC)c2)CCCN(C(=O)c2ccc(OC)o2)C1 (stereo unspecified) | inconclusive: 56.2 µM [inhibitor, single point] | –
O=C(O)c1cc(NCc2ccc3c(c2)OCO3)ccc1N1CCOCC1 | inconclusive: 56.2 µM [inhibitor, partial curve, poor fit] | –
O=C(NCc1ccco1)c1sc2cc(Cl)ccc2c1Cl | inconclusive: 39.8 µM [inhibitor, single point] | –
Cc1ccc(CN2CCC(CNC(=O)Nc3ccc(C)c(C)c3)C2)cc1 (stereo unspecified) | inconclusive: 10 µM [inhibitor, partial curve, poor fit] | –
COc1cc(SC)ccc1C(=O)NCCc1c[nH]c2ccccc12 | inconclusive: 70.8 µM [inhibitor, single point] | –
COc1ccc(C(=O)Nc2ccc(NC(=O)c3cc(OC)c(OC)c(OC)c3)cn2)cc1 | active: 39.8 µM | –
CC(=O)Nc1nnc2n1CCS2 | active: 14.1 µM | –
c1ccc(Cn2ccnc2-c2ccco2)cc1 | – | inactive: 1%
O=C(NCCCn1ccnc1)/C(=C/c1ccc(F)cc1)NC(=O)c1ccccc1 | – | inactive: 10% [at 102 µM]
CC(C)N(C(=O)Cn1cc(SCC(=O)Nc2ccccc2C(F)(F)F)c2ccccc21)C(C)C | – | inactive: -7.13%
Cc1ccc(NC(=S)N(CCN2CCCCC2)Cc2ccco2)cc1C | inconclusive: 31.6 µM [inhibitor, partial curve] | –
CN(Cc1cc([N+](=O)[O-])ccc1Cl)C(=O)C[n+]1ccccc1 | – | inactive: -0.448% [at 102 µM]
CN(C)CCN(C(=O)c1cccs1)c1nc2cc3c(cc2s1)OCCO3 | inconclusive: 89.1 µM [inhibitor, single point] | –
Cc1ccc(C)c(NC(=O)/C(C#N)=C/c2ccc(C(C)C)cc2)c1 | – | inactive: -14.3%
CCC[n+]1c2ccccc2cc2ccccc21 | active: 3.55 µM | –
CC(C)c1nnc(N2C(=O)C(O)=C(C(=O)c3cccs3)C2c2ccccc2)s1 (stereo unspecified) | active: 25.1 µM | –
Cc1ccc(OCCCCN2CCc3ccccc3C2)cc1 | inconclusive: 70.8 µM [inhibitor, partial curve] | –
Cc1ccc(C)c(NC(=O)CN(C)C(=O)CSCc2c(C)noc2C)c1 | active: 31.6 µM | –
CCOCCn1cnc2sc(C(=O)Nc3ccccc3C(=O)OC)c(C)c2c1=O | – | inactive: -0.627%
CC(C)c1cc(C(C)C)c(S(=O)(=O)NNC(=O)c2ccncc2)c(C(C)C)c1 | inconclusive: 28.2 µM [inhibitor, single point] | –
O=C(COC(=O)c1ccccc1F)NC1CCCC1 | – | inactive: 11.7% [at 0.501 µM]

Compound | Potency | activity, negative = inhibition
CC1CCCCN1S(=O)(=O)c1ccc(NC(=O)c2cccs2)cc1 (stereo unspecified) | inconclusive: 50.1 µM [inhibitor, partial curve] | –
COc1cc(NC(=O)CN2Cc3ccccc3C2=O)cc(OC)c1OC | – | inactive: 2.33%
Cc1ccc(-c2nc(CCNC(=O)C(=O)Nc3c(C)cccc3C)cs2)cc1 | – | inactive: 18.4%
Cc1ccccc1C(=O)Nc1nnc(-c2ccco2)s1 | – | inactive: 40% [at 102 µM]
COc1ccc(C2C(C(=O)c3ccco3)=C(O)C(=O)N2CC2CCCO2)cc1 (stereo unspecified) | inconclusive: 39.8 µM [inhibitor, single point] | –
O=C(O)c1ccc(-n2c(-c3ccccc3)n[nH]c2=S)cc1 | inconclusive: 3.55 µM [inhibitor, partial curve, poor fit] | –
CSc1nc2ccccc2n1Cc1c(Cl)cccc1Cl | inconclusive: 10 µM [inhibitor, partial curve] | –
O=C(NCCCN1CCCC1=O)c1cc2nc(-c3ccco3)cc(C(F)(F)F)n2n1 | inconclusive: 89.1 µM [inhibitor, single point] | –
CSc1ccccc1NC(=O)c1noc2c1CCC2 | active: 14.1 µM | –
COc1cccc(CN2CCN(c3ncccn3)CC2)c1 | active: 11.2 µM | –
Cc1cc(NC(=O)c2ocnc2C)no1 | – | inactive: 21% [at 102 µM]
O=C(Nc1ccc(Cl)c(Cl)c1)Nc1cc(S(=O)(=O)N2CCOCC2)ccc1N1CCCC1 | inconclusive: 28.2 µM [inhibitor, single point] | –
CC(C)Cc1nc(N2CCN(C(=O)c3ccco3)CC2)c(C#N)c2c1CCC2 | – | inconclusive: -79.5% [inhibitor]
CCCN(CCC)C(=O)c1nn(C)c2c1CSc1ccc(C)cc1-2 | – | inactive: -17.7%
CCOC(=O)c1c(NC(=O)c2ccco2)sc2c1CCCCC2 | – | inactive: 162% [at 102 µM]
COCCSc1ccccc1C(=O)NCc1ccc2c(c1)OCO2 | inconclusive: 7.08 µM [inhibitor, single point] | –
COc1ccc(-c2nc3c4ccccc4ccn3c2CN2CCOCC2)cc1OC | inconclusive: 50.1 µM [inhibitor, single point] | –
Cc1ccc(OCCN2CCOCC2)cc1C | – | inactive: -1.08% [at 102 µM]
O=C(CCc1ccccc1)Nc1nncs1 | – | inactive: 20.1% [at 102 µM]
COc1cc(-c2noc(CCCC(=O)NCc3ccccc3)n2)cc(OC)c1OC | inconclusive: 31.6 µM [inhibitor, partial curve, poor fit] | –
Cc1c(C(=O)NCCO)[n+](=O)c2ccccc2n1[O-] | inconclusive: 1.12 µM [inhibitor, full curve, poor fit] | –
O=C(Cn1c(NCCO)nc2ccccc21)c1ccccc1 | inconclusive: 89.1 µM [inhibitor, single point] | –
O=C(/C(=C\c1ccccc1)c1nc2ccccc2[nH]1)c1ccc(Cl)cc1 | – | inactive: 41.7%
CCOC(=O)N1CCN(CC(=O)Nc2cc(OCC)ccc2OCC)CC1 | active: 11.2 µM | –
Cc1cccc(C2=N/C(=C\c3cccnc3)C(=O)O2)c1 | inconclusive: 39.8 µM [inhibitor, single point] | –
CN(C)CC(C)(C)CNC(=O)C1CCN(Cc2ccccc2O)CC1 | active: 10 µM | –

Compound | Potency | activity, negative = inhibition
COc1ccc(C2C3=C(CC(C)(C)CC3=O)N(CC(=O)O)C3=C2C(=O)CC(C)(C)C3)cc1OC | active: 70.8 µM | –
CCN1CCN(C(=O)C2CCCN(S(=O)(=O)c3cc(Cl)ccc3Cl)C2)CC1 (stereo unspecified) | inconclusive: 89.1 µM [inhibitor, single point] | –
O=C(Cc1ccc(O)cc1)N/N=C/c1cccnc1 | inconclusive: 44.7 µM [inhibitor, partial curve, poor fit] | –
CCOc1ccc(C(C)=O)cc1CSc1nnc(N)s1 | – | inactive: -8.85% [at 0.0925 µM]
O=C1CC(=O)N(c2cccc(F)c2)N1 | active: 56.2 µM | –
O=C(Nc1cccc(N2CCCC2)c1)c1cccs1 | active: 3.16 µM | –
C/C=C/Cn1c(SCc2ccccc2)nc2c1c(=O)[nH]c(=O)n2C | active: 35.5 µM | –
COC(=O)C(N)CS (stereo unspecified) | – | inactive: -45.5% [at 2.33 µM]
CCOC(=O)CSc1ccc(S(=O)(=O)N2CCCC2)cc1[N+](=O)[O-] | inconclusive: 22.4 µM [inhibitor, partial curve, poor fit] | –
CN1CCN(S(=O)(=O)c2ccc(NC(=S)NC(=O)C3CCCC3)cc2)CC1 | inconclusive: 31.6 µM [inhibitor, partial curve, poor fit] | –
Cc1ccc(NC(=O)c2cccc(S(=O)(=O)N3CCN(c4ccccc4)CC3)c2)nc1 | inconclusive: 35.5 µM [inhibitor, partial curve, poor fit] | –
CCN(CC)CCOC(=O)c1ccc(Nc2c3c(nc4ccccc24)CCC3)cc1 | inconclusive: 39.8 µM [inhibitor, partial curve, poor fit] | –
CCC(C)(C)n1nnnc1C(c1cc2cc(C)cc(C)c2[nH]c1=O)N1CCN(Cc2ccc3c(c2)OCO3)CC1 (stereo unspecified) | – | inactive: -3.87% [at 12.7 µM]
CCC(C)Oc1ccc(/C=C/c2[nH]c(=O)[nH]c(=O)c2[N+](=O)[O-])cc1OC (stereo unspecified) | inconclusive: 44.7 µM [inhibitor, partial curve] | –
COC(CNc1ncnc2c1cnn2C)OC | inconclusive: 70.8 µM [inhibitor, partial curve, poor fit] | –
COc1ccccc1CN1CN(S(=O)(=O)c2ccccc2)c2nc3ccccc3nc21 | active: 31.6 µM | –
CCOC(=O)c1cc2c(ccn2C)n1Cc1ccc(Cl)cc1 | active: 50.1 µM | –
Clc1cccc(C2=NC(c3cccs3)=Nc3ccc(Br)cc3N2)c1 | – | inactive: -24.6%
Cn1c(CNC(=O)c2ccc(Cl)cc2)nnc1SCC(=O)NC1=NCCS1 | inconclusive: 89.1 µM [inhibitor, single point] | –
COc1ccc(N2CCN(C(C)C(=O)N3CCCC3)CC2)cc1 (stereo unspecified) | – | inconclusive: -88.3% [inhibitor] [at 12.7 µM]
O=C(Nc1cnc(N2CCC(N3CCCCC3)CC2)c(C(=O)O)c1)c1ccc(Br)cc1 | inconclusive: 39.8 µM [inhibitor, single point] | –
Cc1ccc(S(=O)(=O)NN=C2C3CC4CC(C3)CC2C4)cc1 | – | inconclusive: -69.7% [inhibitor] [at 2.33 µM]
COc1ccccc1C1/C(=C(\O)c2ccc3c(c2)OCCO3)C(=O)C(=O)N1CCCn1ccnc1 (stereo unspecified) | active: 39.8 µM | –
COc1ccc(S(=O)(=O)N2CCN(CC(=O)Nc3cccc(OC)c3)CC2)cc1 | – | inactive: 15.4% [at 102 µM]
